In article PMC4336329 (PLoS ONE, 2015):
About 14,000 (4.5%) of roughly 310,000 compounds showed an effect of 50% or more. Effects have a minus sign here. The list shows a part of the results.

Each compound was assayed against human ether-à-go-go-related gene (hERG) potassium channel (human, UniProt Q12809) (assay: primary screen, population patch clamp on CHO cells stably expressing hERG).
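Note: peak tail current of the secondary pulse compared with the same well before compound.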

Sequence of human ether-à-go-go-related gene (hERG) potassium channel (Q12809 whole entry, looked up): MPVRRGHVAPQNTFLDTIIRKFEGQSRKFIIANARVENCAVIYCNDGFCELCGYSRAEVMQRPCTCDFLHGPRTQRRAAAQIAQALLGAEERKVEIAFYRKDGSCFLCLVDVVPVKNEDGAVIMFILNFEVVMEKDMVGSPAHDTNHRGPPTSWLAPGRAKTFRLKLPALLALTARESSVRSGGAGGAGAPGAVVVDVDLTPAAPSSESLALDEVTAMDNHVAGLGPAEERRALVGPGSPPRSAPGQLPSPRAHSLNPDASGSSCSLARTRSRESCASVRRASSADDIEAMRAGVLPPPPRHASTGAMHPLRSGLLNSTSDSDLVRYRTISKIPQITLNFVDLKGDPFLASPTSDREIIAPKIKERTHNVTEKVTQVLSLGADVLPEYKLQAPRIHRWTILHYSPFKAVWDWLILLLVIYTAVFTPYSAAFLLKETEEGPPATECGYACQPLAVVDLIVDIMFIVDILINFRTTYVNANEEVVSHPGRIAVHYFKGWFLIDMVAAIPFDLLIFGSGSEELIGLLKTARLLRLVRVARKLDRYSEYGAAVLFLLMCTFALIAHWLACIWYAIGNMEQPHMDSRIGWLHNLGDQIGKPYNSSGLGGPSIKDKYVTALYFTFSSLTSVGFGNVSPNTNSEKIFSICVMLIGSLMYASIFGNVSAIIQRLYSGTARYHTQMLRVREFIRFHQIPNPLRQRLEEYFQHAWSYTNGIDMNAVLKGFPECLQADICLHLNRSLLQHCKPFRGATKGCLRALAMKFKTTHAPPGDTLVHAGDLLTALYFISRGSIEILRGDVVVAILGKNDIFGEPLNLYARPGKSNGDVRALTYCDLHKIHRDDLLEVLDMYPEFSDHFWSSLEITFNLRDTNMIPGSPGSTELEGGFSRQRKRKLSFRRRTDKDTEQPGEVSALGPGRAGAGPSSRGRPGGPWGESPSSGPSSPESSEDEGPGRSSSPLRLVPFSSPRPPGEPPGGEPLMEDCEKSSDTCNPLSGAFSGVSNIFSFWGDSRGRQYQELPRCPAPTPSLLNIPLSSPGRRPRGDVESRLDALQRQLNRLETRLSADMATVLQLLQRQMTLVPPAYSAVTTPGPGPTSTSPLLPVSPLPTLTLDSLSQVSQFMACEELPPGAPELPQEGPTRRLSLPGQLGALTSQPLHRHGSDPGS

Structure (SMILES) | hERG current change (%, negative = inhibition) at 10uM
O=C(NCC1CCCO1)c1cc(-c2ccc(Cl)cc2Cl)on1 (stereo not shown) | -9.68%
CCCOc1cccc(-c2nc3ccccc3c(=O)o2)c1 | 8.72%
CCN(CC)S(=O)(=O)c1ccc(N=N/C(C(C)=O)=C(/C)O)cc1 | 7.32%
O=C(CN1C(=O)NC2(CCCC2)C1=O)N1CCN(Cc2ccccc2)CC1 | -3.04%
Cc1cc(/C=N/NC(=O)c2cccs2)c(C)n1-c1ccccc1 | 15.6%
CC(C)(C)c1ccc(-c2n[nH]c(=S)n2CC2CCCO2)cc1 (stereo not shown) | -2.69%
Cc1ccc(S(=O)(=O)N2CCOCC2)cc1NC(=O)c1cccc(S(=O)(=O)N2CCCC2)c1 | 1.48%
CCC(C)c1ccccc1NC(=O)COC(=O)c1ccc(N2CCCC2)c([N+](=O)[O-])c1 (stereo not shown) | 6.97%
CCOC(=O)c1c(C)[nH]c(NC(=O)N2CCOCC2)c1C | 8.17%
CCOC(=O)C1CCN(Cc2c(C(=O)N3CCOCC3)nc3c(C)cccn23)CC1 | 7.62%
Cc1cc(F)ccc1S(=O)(=O)Nc1nc2ccccc2nc1Cl | -1.76%
COc1cccc(C(=O)N(C)CC2CCN(CCc3cccc(C(F)(F)F)c3)CC2)c1 | -70.8%
CCC1C(=O)NCCN1C(=O)c1cccc(OC2CCN(S(=O)(=O)N(C)C)CC2)c1 (stereo not shown) | 14%
O=c1cnn(Cc2ccc(Cl)c(Cl)c2)c2ccccc12 | -15.2%
COc1ccc(CO/N=C/c2c(C)[nH]c(=O)[nH]c2=O)cc1 | 1.47%
COc1cc2ccccc2cc1C(=O)NC(=S)Nc1ccc(C(=O)O)cc1 | 7.46%
CNC(=O)CC(C(=O)O)c1ccc(OCC(C)C)cc1 (stereo not shown) | 8.21%
Cc1cc(-c2ccccc2)nc(=O)[nH]1 | 10.2%
Cn1cnnc1SC1c2cccc3cccc(c23)C1NS(=O)(=O)c1ccc(Cl)cc1 (stereo not shown) | 4.47%
NC(=O)c1ccc(C(F)(F)F)n(Cc2cccc(Cl)c2)c1=O | -2.74%
CCc1nnc(NC(=O)c2ccc(COc3ccc(C)cc3)o2)s1 | 1.37%
CC(C)(C)c1cc[n+](-c2nc([O-])sc2C=O)cc1 | 22.2%
Cc1cc(C)nc(N(C#N)CCOc2ccccc2)n1 | 7.15%
Cl.c1ccc(-c2nnc(CN3CCN(C(c4ccccc4)c4ccccc4)CC3)o2)cc1 | -3.69%
CC1=C(C(=O)Nc2ccc(C(=O)N3CCN(c4ccccc4F)CC3)cc2)SCCO1 | -11.3%
